Source: patent publication US20050191730A1 (Regeneron, published 2005)

T1: human IL-4 (human, UniProt P05112 25-153)
T1 sequence (looked up): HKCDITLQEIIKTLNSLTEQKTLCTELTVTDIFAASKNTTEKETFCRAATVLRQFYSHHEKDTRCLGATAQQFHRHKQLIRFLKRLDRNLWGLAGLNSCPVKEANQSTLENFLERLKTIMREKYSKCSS


Key:
[1] = target: T1, human IL-4; test: cell-based or functional assay
[2] = target: human IL-13 (human, UniProt P35225 partial chain, limits assumed); test: cell-based or functional assay
Sequence of UniProt P35225 (P35225 35-146 limits assumed): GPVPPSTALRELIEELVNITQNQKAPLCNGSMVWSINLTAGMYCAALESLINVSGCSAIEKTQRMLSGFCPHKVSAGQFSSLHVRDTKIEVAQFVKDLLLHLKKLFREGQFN

Row | Binder | IL-4 Inhibition (fold vs parent 1132 IC50, TF1 bioassay, CHO supernatant) [1] [fold] | IL-13 Inhibition (fold vs parent 1132 IC50, TF1 bioassay, CHO supernatant) [2] [fold]
1 | IL-4/13 fusion polypeptide variant 2595 (Fc fusion) GNMKVLQEPTCVSDYMSIITCEWKMNGPTNCSTELRLLYQLVFLLSEAHTCIPENNGGAGCVCHLLMDDVVSADNYTLDLWAGQQLLWKGSFKPSEHVKPRAPGNLTVHTNVSDTLLLTWSNPYPPDNYLYNHLTYAVNIWSENDPADFRIYNVTYLEPSLRIAASTLKSGISYRARVRAWAQSYNTTWSEWSPSTKWHNSYREPFEQAPTETQPPVTNLSVSVENLATVIWTWNPPEGASSNCSLWYFSHFGDKQDKKIAPETRRSIEVPLNERICLQVGSQCSTNESEKPSILVEKCISPPEGDPESAVTELQCIWHNLSYMKCSWLPGRNTSPDTNYTLYYWHRSLEKIHQCENIFREGQYFGCSFDLTKVKDSSFEQHSVQIMVKDNAGKIKPSFNIVPLTSRVKPDPPHIKNLSFHNDDLYVQWENPQNFISRCLFYEVEVNNSQTETHNVFYVQEAKCENPEFERNVENTSCFMVPGVLPDTLNTVRIRVKTNKLCYEDDKLWSNWSQEMSIGKKRNSTG[human IgG1 Fc omitted] | 0.15 | 0.15
2 | IL-4/13 fusion polypeptide variant 2599 (Fc fusion) GNMKVLQEPTCVSDYMSISTCEWKMNGPTNCSTELRLLYQLVFLLSEAHTCIPENNGGAGCVCHLLMDDVVSADNYTLDLWAGQQLLWKGSFKPSEHVKPRAPGNLTVHTNVSDTLLLTWSNPYPPDNYLYNHLTYAVNIWSENDPADFRIYNVTYLEPSLRIAASTLKSGISYRARVRAWIQSYNTTWSEWSPSTKWHNSYREPFEQAPTETQPPVTNLSVSVENLATVIWTWNPPEGASSNCSLWYFSHFGDKQDKKIAPETRRSIEVPLNERICLQVGSQCSTNESEKPSILVEKCISPPEGDPESAVTELQCIWHNLSYMKCSWLPGRNTSPDTNYTLYYWHRSLEKIHQCENIFREGQYFGCSFDLTKVKDSSFEQHSVQIMVKDNAGKIKPSFNIVPLTSRVKPDPPHIKNLSFHNDDLYVQWENPQNFISRCLFYEVEVNNSQTETHNVFYVQEAKCENPEFERNVENTSCFMVPGVLPDTLNTVRIRVKTNKLCYEDDKLWSNWSQEMSIGKKRNSTG[human IgG1 Fc omitted] | 0.33 | 0.16
3 | IL-4/13 fusion polypeptide variant 2596 (Fc fusion) GNMKVLQEPTCVSDYMSISTCEWKMNGPTNCSTELRLLYQLVFLLSEAHTCIPENNGGAGCVCHLLMDDVVSADNYTLDLWIGQQLLWKGSFKPSEHVKPRAPGNLTVHTNVSDTLLLTWSNPYPPDNYLYNHLTYAVNIWSENDPADFRIYNVTYLEPSLRIAASTLKSGISYRARVRAWAQSYNTTWSEWSPSTKWHNSYREPFEQAPTETQPPVTNLSVSVENLATVIWTWNPPEGASSNCSLWYFSHFGDKQDKKIAPETRRSIEVPLNERICLQVGSQCSTNESEKPSILVEKCISPPEGDPESAVTELQCIWHNLSYMKCSWLPGRNTSPDTNYTLYYWHRSLEKIHQCENIFREGQYFGCSFDLTKVKDSSFEQHSVQIMVKDNAGKIKPSFNIVPLTSRVKPDPPHIKNLSFHNDDLYVQWENPQNFISRCLFYEVEVNNSQTETHNVFYVQEAKCENPEFERNVENTSCFMVPGVLPDTLNTVRIRVKTNKLCYEDDKLWSNWSQEMSIGKKRNSTG[human IgG1 Fc omitted] | 1.12 | 0.44
4 | IL-4/13 fusion polypeptide variant 2597 (Fc fusion) GNMKVLQEPTCVSDYMSISTCEWKMNGPTNCSTELRLLYQLVFLLSEAHTCIPENNGGAGCVCHLLMDDVVSADNYTLDLWAGQQLLWKGSFKPSEHVKPRAPGNLTVHTNVSDTLLLTWSNPYPPDNYLYNHLTYAVNIWSENDPADFRIYNVTYLEPSLRIAASTLKSGISYRIRVRAWAQSYNTTWSEWSPSTKWHNSYREPFEQAPTETQPPVTNLSVSVENLATVIWTWNPPEGASSNCSLWYFSHFGDKQDKKIAPETRRSIEVPLNERICLQVGSQCSTNESEKPSILVEKCISPPEGDPESAVTELQCIWHNLSYMKCSWLPGRNTSPDTNYTLYYWHRSLEKIHQCENIFREGQYFGCSFDLTKVKDSSFEQHSVQIMVKDNAGKIKPSFNIVPLTSRVKPDPPHIKNLSFHNDDLYVQWENPQNFISRCLFYEVEVNNSQTETHNVFYVQEAKCENPEFERNVENTSCFMVPGVLPDTLNTVRIRVKTNKLCYEDDKLWSNWSQEMSIGKKRNSTG[human IgG1 Fc omitted] | 0.27 | 0.27
5 | IL-4/13 fusion polypeptide variant 2598 (Fc fusion) GNMKVLQEPTCVSDYMSISTCEWKMNGPTNCSTELRLLYQLVFLLSEAHTCIPENNGGAGCVCHLLMDDVVSADNYTLDLWAGQQLLWKGSFKPSEHVKPRAPGNLTVHTNVSDTLLLTWSNPYPPDNYLYNHLTYAVNIWSENDPADFRIYNVTYLEPSLRIAASTLKSGISYRARVRIWAQSYNTTWSEWSPSTKWHNSYREPFEQAPTETQPPVTNLSVSVENLATVIWTWNPPEGASSNCSLWYFSHFGDKQDKKIAPETRRSIEVPLNERICLQVGSQCSTNESEKPSILVEKCISPPEGDPESAVTELQCIWHNLSYMKCSWLPGRNTSPDTNYTLYYWHRSLEKIHQCENIFREGQYFGCSFDLTKVKDSSFEQHSVQIMVKDNAGKIKPSFNIVPLTSRVKPDPPHIKNLSFHNDDLYVQWENPQNFISRCLFYEVEVNNSQTETHNVFYVQEAKCENPEFERNVENTSCFMVPGVLPDTLNTVRIRVKTNKLCYEDDKLWSNWSQEMSIGKKRNSTG[human IgG1 Fc omitted] | 0.22 | 0.1

Now from value to binder:

Row | IL-4 Inhibition (fold vs parent 1132 IC50, TF1 bioassay, CHO supernatant) [1] [fold] | IL-13 Inhibition (fold vs parent 1132 IC50, TF1 bioassay, CHO supernatant) [2] [fold] | Binder
6 | – | 0.46 | IL-4/13 fusion polypeptide variant 2675 (Fc fusion) GNMKVLQEPTCVSDYMSISTCEWKMNGPTNCSTELRKLYQLVFLLSEAHTCIPENNGGAGCVCHLLMDDVVSADNYTLDLWAGQQLLWKGSFKPSEHVKPRAPGNLTVHTNVSDTLLLTWSNPYPPDNYLYNHLTYAVNIWSENDPADFRIYNVTYLEPSLRIAASTLKSGISYRARVRAWAQSYNTTWSEWSPSTKWHNSYREPFEQAPTETQPPVTNLSVSVENLATVIWTWNPPEGASSNCSLWYFSHFGDKQDKKIAPETRRSIEVPLNERICLQVGSQCSTNESEKPSILVEKCISPPEGDPESAVTELQCIWHNLSYMKCSWLPGRNTSPDTNYTLYYWHRSLEKIHQCENIFREGQYFGCSFDLTKVKDSSFEQHSVQIMVKDNAGKIKPSFNIVPLTSRVKPDPPHIKNLSFHNDDLYVQWENPQNFISRCLFYEVEVNNSQTETHNVFYVQEAKCENPEFERNVENTSCFMVPGVLPDTLNTVRIRVKTNKLCYEDDKLWSNWSQEMSIGKKRNSTG[human IgG1 Fc omitted]
7 | 0.04 | – | IL-4/13 fusion polypeptide variant 2708 (Fc fusion) GNMKVLQEPTCVSDYMSISTCEWKMNGPTNCSTELRLLYQYVFLLSEAHTCIPENNGGAGCVCHLLMDDVVSADNYTLDLWAGQQLLWKGSFKPSEHVKPRAPGNLTVHTNVSDTLLLTWSNPYPPDNYLYNHLTYAVNIWSENDPADFRIYNVTYLEPSLRIAASTLKSGISYRARVRAWAQSYNTTWSEWSPSTKWHNSYREPFEQAPTETQPPVTNLSVSVENLATVIWTWNPPEGASSNCSLWYFSHFGDKQDKKIAPETRRSIEVPLNERICLQVGSQCSTNESEKPSILVEKCISPPEGDPESAVTELQCIWHNLSYMKCSWLPGRNTSPDTNYTLYYWHRSLEKIHQCENIFREGQYFGCSFDLTKVKDSSFEQHSVQIMVKDNAGKIKPSFNIVPLTSRVKPDPPHIKNLSFHNDDLYVQWENPQNFISRCLFYEVEVNNSQTETHNVFYVQEAKCENPEFERNVENTSCFMVPGVLPDTLNTVRIRVKTNKLCYEDDKLWSNWSQEMSIGKKRNSTG[human IgG1 Fc omitted]
8 | – | 0.23 | IL-4/13 fusion polypeptide variant 2676 (Fc fusion) GNMKVLQEPTCVSDYMSISTCEWKMNGPTNCSTELRQLYQLVFLLSEAHTCIPENNGGAGCVCHLLMDDVVSADNYTLDLWAGQQLLWKGSFKPSEHVKPRAPGNLTVHTNVSDTLLLTWSNPYPPDNYLYNHLTYAVNIWSENDPADFRIYNVTYLEPSLRIAASTLKSGISYRARVRAWAQSYNTTWSEWSPSTKWHNSYREPFEQAPTETQPPVTNLSVSVENLATVIWTWNPPEGASSNCSLWYFSHFGDKQDKKIAPETRRSIEVPLNERICLQVGSQCSTNESEKPSILVEKCISPPEGDPESAVTELQCIWHNLSYMKCSWLPGRNTSPDTNYTLYYWHRSLEKIHQCENIFREGQYFGCSFDLTKVKDSSFEQHSVQIMVKDNAGKIKPSFNIVPLTSRVKPDPPHIKNLSFHNDDLYVQWENPQNFISRCLFYEVEVNNSQTETHNVFYVQEAKCENPEFERNVENTSCFMVPGVLPDTLNTVRIRVKTNKLCYEDDKLWSNWSQEMSIGKKRNSTG[human IgG1 Fc omitted]
9 | 0.04 | – | IL-4/13 fusion polypeptide variant 2707 (Fc fusion) GNMKVLQEPTCVSDYMSISTCEWKMNGPTNCSTELRLLYQKVFLLSEAHTCIPENNGGAGCVCHLLMDDVVSADNYTLDLWAGQQLLWKGSFKPSEHVKPRAPGNLTVHTNVSDTLLLTWSNPYPPDNYLYNHLTYAVNIWSENDPADFRIYNVTYLEPSLRIAASTLKSGISYRARVRAWAQSYNTTWSEWSPSTKWHNSYREPFEQAPTETQPPVTNLSVSVENLATVIWTWNPPEGASSNCSLWYFSHFGDKQDKKIAPETRRSIEVPLNERICLQVGSQCSTNESEKPSILVEKCISPPEGDPESAVTELQCIWHNLSYMKCSWLPGRNTSPDTNYTLYYWHRSLEKIHQCENIFREGQYFGCSFDLTKVKDSSFEQHSVQIMVKDNAGKIKPSFNIVPLTSRVKPDPPHIKNLSFHNDDLYVQWENPQNFISRCLFYEVEVNNSQTETHNVFYVQEAKCENPEFERNVENTSCFMVPGVLPDTLNTVRIRVKTNKLCYEDDKLWSNWSQEMSIGKKRNSTG[human IgG1 Fc omitted]
10 | – | 0.43 | IL-4/13 fusion polypeptide variant 2677 (Fc fusion) GNMKVLQEPTCVSDYMSISTCEWKMNGPTNCSTELRYLYQLVFLLSEAHTCIPENNGGAGCVCHLLMDDVVSADNYTLDLWAGQQLLWKGSFKPSEHVKPRAPGNLTVHTNVSDTLLLTWSNPYPPDNYLYNHLTYAVNIWSENDPADFRIYNVTYLEPSLRIAASTLKSGISYRARVRAWAQSYNTTWSEWSPSTKWHNSYREPFEQAPTETQPPVTNLSVSVENLATVIWTWNPPEGASSNCSLWYFSHFGDKQDKKIAPETRRSIEVPLNERICLQVGSQCSTNESEKPSILVEKCISPPEGDPESAVTELQCIWHNLSYMKCSWLPGRNTSPDTNYTLYYWHRSLEKIHQCENIFREGQYFGCSFDLTKVKDSSFEQHSVQIMVKDNAGKIKPSFNIVPLTSRVKPDPPHIKNLSFHNDDLYVQWENPQNFISRCLFYEVEVNNSQTETHNVFYVQEAKCENPEFERNVENTSCFMVPGVLPDTLNTVRIRVKTNKLCYEDDKLWSNWSQEMSIGKKRNSTG[human IgG1 Fc omitted]
